Data taken from PubChem BioAssay AID485313 (National Center for Advancing Translational Sciences (NCATS), 2010).
The campaign covered roughly 320,000 compounds. About 7,600 (2.4%) were called active. The inconclusive results got no clear call from the source; some entries with a clear call stand among them for comparison. Calls follow the shape of the dose curve; as a rule, active = well fitted activation curve with a large enough effect; inconclusive = small, poorly fitted or top-dose-only effect; inactive = no such curve, though single readings can be large or run the other way. No potency is given beside an inconclusive call; the fits are too rough.

Assay: qHTS Assay for NPC1 Promoter Activators; also: nearly all actives have a fitted effect of over 60% in size;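 as to activation: reporter is driven by a mutant NPC1 promoter; % of control where 0% means no effect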
Details: Huh7 NPC1 promoter luciferase reporter, 24 h; series mostly up to 9.22 µM; activation: at the top concentration
Summary of the method: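 Stable NPC1-promoter luciferase Huh7 line; cpd (DMSO) 24 h, 37 °C, 5% CO2; Amplite luciferase reagent 10 min RT; luminescence readout. qHTS format.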
Potency is read from the fitted curve at half-maximal effect; tags tell the direction and shape of the fitted curve.

| Structure (SMILES) | Potency | activation |
| --- | --- | --- |
| FC(F)(F)c1cnc(-c2cnc(-c3ccncc3)nc2)c(Cl)c1 | inconclusive [activator, partial curve] |  |
| OCc1cc(Br)ccc1OCc1nc2ccccc2s1 | active: 3.16 µM |  |
| Cc1ccc(-c2nc3cc(NC(=O)C(C)C)ccc3o2)cc1C | active: 0.355 µM |  |
| C/C(=N\NC(=O)c1ccn(C)n1)c1cccc(NC(=O)c2ccc(C)s2)c1 | inconclusive [activator, single point] |  |
| O=C(Nc1cccc([N+](=O)[O-])c1)N1CCc2ccccc2C1 | inconclusive [activator, partial curve] |  |
| COc1ccc(/C=C2\CCC(C3CCCC3)C2=O)cc1OC (stereo not drawn) | inconclusive [activator, single point] |  |
| Cc1ccc(C)c(OCc2cc(C(=O)N3CC[C@@H]4CCCC[C@H]4C3)no2)c1 | inconclusive [activator, single point] |  |
| CC(=O)c1ccc(OCc2cc(C(=O)NC(C)CCn3cccn3)no2)cc1 (stereo not drawn) | active: 2.82 µM |  |
| COCc1c(C(=O)Nc2ccc(Cl)cc2F)oc2ccccc12 | inconclusive [activator, single point] |  |
| CCCCOc1ccc(-c2nnc(-c3ccco3)o2)cc1 | active: 1.58 µM |  |
| COC(=O)c1ccc(NC(=O)Nc2ccccc2C)cc1 | inconclusive [activator, partial curve] |  |
| COc1ccc(-c2cc(C(=O)N3CCCCC3)no2)cc1OC | inconclusive [activator, partial curve] |  |
| CC1=C(C(=O)OCC2CCCO2)C(c2ccccc2)C2=C(CCCC2=O)N1 (stereo not drawn) |  | inactive: -0.587% |
| Cn1c2ccc(F)cc2c2nc3ccccc3nc21 |  | inactive: 27.9% |
| O=C(Nc1ccccc1C(F)(F)F)c1cc(-c2ccccc2O)on1 | inconclusive [activator, partial curve] |  |
| Cc1c(CNCC(C)c2ccccc2)c(C(=O)O)c(C)n1Cc1ccccc1 (stereo not drawn) |  | inactive: -1.15% |
| CC1CCC/C(=N\Nc2ccc(Cl)c(C(=O)O)c2)C1 (stereo not drawn) | inconclusive [activator, single point] |  |
| CCSc1ncc(/C=N/Nc2ccccc2)n1C | inconclusive [activator, single point] |  |
| N#C/C(=C\c1ccccc1)C(=O)OCC(=O)N1CCCC1 |  | inactive: -2.66% |
| O=C(CSc1nc2ncccc2[nH]1)c1ccc2c(c1)OCO2 | inconclusive [activator, partial curve] |  |
| CC(=O)c1ccc(NC(=O)CNCc2cccs2)cc1 | inconclusive [activator, single point] |  |
| O=c1c2cc(-c3ccccc3)sc2ncn1/N=C/c1ccco1 | inconclusive [activator, partial curve] |  |
| CCCNC(=O)c1cc(-c2ccc(OC)cc2)on1 | active: 0.891 µM |  |
| O=C(NCc1csc(-c2cccs2)n1)c1ccccc1 | inconclusive [activator, single point] |  |
| CC(C)(C)NC(=O)NC(=O)COc1ccc(Br)cc1Br | active: 1.26 µM |  |
| O=c1c(C=NCCN2CCNCC2)c(-c2ccccc2)[nH]n1-c1ccc([N+](=O)[O-])cc1 | inconclusive [activator, single point] |  |

| Structure (SMILES) | Potency | activation |
| --- | --- | --- |
| Cc1ccsc1C(=O)NNC(=S)NC1CCCCC1 | inconclusive [activator, partial curve] |  |
| CC(/C=N/NC(=O)Cc1cccs1)=C\c1ccco1 | inconclusive [activator, partial curve] |  |
| c1ccc(OCCSc2nnnn2C2CCCCC2)cc1 | active: 0.562 µM |  |
| Cc1[nH]n(-c2ccccc2)c(=O)c1C=NCc1ccco1 | active: 3.55 µM |  |
| CN1CCN(C(=O)C23CC4CC(C2)CC(c2ccccc2)(C4)C3)CC1 |  | inactive: -0.134% |
| COc1ccc(SCCN2CC[C@@H](C(C)(C)C)CCC2=O)cc1 |  | inactive: 12.4% |
| CC(C)c1ccc(NC(=S)NN2CCOCC2)cc1 | inconclusive [activator, single point] |  |
| Cc1csc2ncc(C(=O)Nc3ccccc3Cl)c(=O)n12 | inconclusive [activator, single point] |  |
| O=C(NCC(c1ccco1)N1CCc2ccccc21)C(=O)Nc1ccccc1F (stereo not drawn) |  | inactive: -1.66% |
| Cc1cc(C(=O)Nc2nc3ccc(S(C)(=O)=O)cc3s2)c(C)o1 | inconclusive [activator, partial curve] |  |
| COc1cccc(/C=N/NC(=O)CSCC(=O)Nc2ccccc2)c1O |  | inactive: -32.9% |
| O=C(CCSc1ccc(Cl)cc1)N1CCN(c2ccc(O)cc2)CC1 | inconclusive [activator, partial curve] |  |
| CC(C)c1ccc(C(=O)CSc2ncn[nH]2)cc1 | inconclusive [activator, partial curve] |  |
| O=C(CNC(=O)c1ccco1)Nc1ccc(Br)cc1 | inconclusive [activator, single point] |  |
| Clc1ccc(OCCSc2ncccn2)c(Br)c1 | active: 1.41 µM |  |
| CC(=O)Nc1cccc(NC(=O)Nc2ccc(F)cc2F)c1 |  | inactive: -0.616% |
| O=C(CN1C(=O)c2ccccc2S1(=O)=O)c1ccc(F)c(F)c1 | inconclusive [activator, partial curve] |  |
| CCSc1nnc(NC(=O)c2ccccc2C)s1 | inconclusive [activator, partial curve] |  |
| CC(=O)c1ccc(NC(=O)Nc2cccc3ccccc23)cc1 |  | inactive: 25.5% |
| COc1ccc(C(=O)Nc2nncs2)c(OC)c1 | inconclusive [activator, single point] |  |
| Cc1cc(C)cc(N(CC(=O)Nc2ccc(-c3nc4ccc(C)cc4s3)cc2)S(C)(=O)=O)c1 | inconclusive [activator, partial curve] |  |
| Nc1ccc2nn(-c3ccc(Cl)cc3)nc2c1 | active: 0.447 µM |  |
| Cc1cc2oc(=O)c(CC(=O)O)c(C)c2c2occ(C(C)(C)C)c12 | inconclusive [activator, partial curve] |  |
| Cc1ccc(NC(=O)c2ccc3c(SCC(=O)O)c4c(nc3c2)CCCC4)c(Br)c1 |  | inactive: -5.58% |
| Cc1ccc(-c2nnc(NC(=O)c3ccco3)o2)c(C)c1 | inconclusive [activator, partial curve] |  |
| CCOCC(=O)Nc1nc2ccc(OCC)cc2s1 | active: 2.51 µM |  |

| Structure (SMILES) | Potency | activation |
| --- | --- | --- |
| CC(C)NC(=O)c1cc(-c2ccc3c(c2)OCO3)on1 | active: 0.562 µM |  |
| CCOC(=O)c1sc(=NC(=O)c2ccccc2Br)n(C)c1C | inconclusive [activator, single point] |  |
| Cn1c(N/N=C/c2c[nH]c3ccccc23)nc2ccccc21 | inconclusive [activator, single point] |  |
| COC(=O)c1ccc(/C=N\N2CCN(c3ccccc3)CC2)cc1 | inconclusive [activator, single point] |  |
| Cc1nc(-c2ccc(S(=O)(=O)NCc3cccnc3)s2)cs1 |  | inactive: 0.473% |
| N/C(=N\OC(=O)c1cccc(Br)c1)c1ccccn1 | active: 3.55 µM |  |
| Cn1c(SCC(=O)NC2CC2)nnc1-c1cccs1 | active: 3.98 µM |  |
| O=C(O)c1ccc(/C=C2\CCCc3c2nc2ccccc2c3C(=O)O)cc1 |  | inactive: -40.6% |
| Cc1ccc2oc3c(c(=O)c2c1)C(c1cccc(Cl)c1)N(CCCN1CCOCC1)C3=O (stereo not drawn) |  | inactive: -0.177% |
| CCCC(=O)N1CCN(c2nc3ccc(CC)cc3s2)CC1 | inconclusive [activator, partial curve] |  |
| Cc1cc(NC(=O)c2ccc3nc(C)sc3c2)no1 | active: 0.891 µM |  |
| CC1C=CCC2C(=O)N(c3cccc(C(=O)N4CCN(c5ccc(F)cc5)CC4)c3)C(=O)C12 (stereo not drawn) | active: 2.82 µM |  |
| O=C(O)c1ccc(COc2ccc3c(c2)CCC3)cc1 | inconclusive [activator, partial curve] |  |
| O=C(COc1ccccc1F)N/N=C1\CCCc2ccccc21 | inconclusive [activator, single point] |  |
| O=C(/C=C/c1ccc(N2CCOCC2)cc1)c1ccccc1 | active: 2 µM |  |
| CC(C)Cc1cc(C(=O)Nc2cc(Br)ccc2O)no1 | inconclusive [activator, partial curve] |  |
| O=C(N/N=C/c1c(Cl)[nH]c2ccccc12)c1ccc2c(c1)OCCO2 | inconclusive [activator, single point] |  |
| Cc1ccc2nc(-c3cccnc3)oc2c1 | inconclusive [activator, partial curve] |  |
| CCCOC(=O)c1ccc(NC(=O)C2CCCO2)cc1 (stereo not drawn) | inconclusive [activator, single point] |  |
| Cc1cc(O)cc2c1C(=O)/C(=C/c1ccco1)O2 | inconclusive [activator, single point] |  |
| COc1ccc2oc(=N)c(C(=O)Nc3ccccc3)cc2c1 | inconclusive [activator, single point] |  |
| Cc1cc(NC(=O)C2CC2)ncc1NC(=O)c1ccccn1 | inconclusive [activator, single point] |  |
| COc1ccc2nc(-n3c(C)ccc3C)sc2c1 |  | inactive: 6.08% |
| CC(=O)c1c(C)[nH]c(C(=O)Nc2ccc(C)c(C)c2)c1C | inconclusive [activator, partial curve] |  |
| CC(C)Cc1nc(N2CCN(C(=O)Cc3ccccc3)CC2)c(C#N)c2c1COC(C)(C)C2 |  | inactive: -5.81% |
| O=C(NCc1cccnc1)c1cc(-c2cccs2)on1 | inconclusive [activator, single point] |  |
